Test results reported in US20230295329A1 (published 2023).

Biological target: T1, PD-1-His protein (Cat. #10377H08H, Sino Biological) (human, UniProt Q15116 fragment)
T1 construct: Bought reagent; also called huPD-1-his; hu PD-1-his; not shown: His tag of the bought protein
Test: ELISA, PD-1-His coated, HRP goat anti-human IgG detection

T1 sequence (Q15116 25-167 limits assumed): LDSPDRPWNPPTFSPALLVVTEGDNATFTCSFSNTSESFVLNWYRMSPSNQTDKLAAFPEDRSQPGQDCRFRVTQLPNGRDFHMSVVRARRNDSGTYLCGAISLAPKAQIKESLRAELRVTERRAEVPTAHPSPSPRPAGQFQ

OD value MAX: 1.71
B1: Hu33-6.IgG4AA (antibody)
heavy: KVQLVESGGGLVQPGGSLRLSCAASGFTFSSYAMSWVRQAPGKGLEWVATISGGGVDTYYQDNVQGRFTISRDNAKNSLYLQMNSLRAEDTAVYYCASPYGHGYFDVWGQGTTVTVSSASTKGPSVFPLAPCSRSTSESTAALGCLVKDYFPEPVTVSWNSGALTSGVHTFPAVLQSSGLYSLSSVVTVPSSSLGTKTYTCNVDHKPSNTKVDKRV[here human IgG4 Fc with S228P F234A L235A (EU numbers) without letters]
light: DIQMTQSPSSLSASVGDRVTITCRASQDINNFLNWYQQKPGKAPKLLIYYTSSLHSGVPSRFSGSGSGTDYTLTISSLQPEDFATYYCQQGNTLPWTFGGGTKVEIKRTVAAPSVFIFPPSDEQLKSGTASVVCLLNNFYPREAKVQWKVDNALQSGNSQESVTEQDSKDSTYSLSSTLTLSKADYEKHKVYACEVTHQGLSSPVTKSFNRGEC
notes: Full-length IgG4-AA (S228P, F234A, L235A) antibody with kappa light chain
